The campaign covered roughly 45,000 compounds. About 200 (0.44%) were called active. Not shown: some 7% with an inconclusive outcome. Calls come from the whole dose curve; as a rule, active = well fitted activation curve with a large enough effect; inconclusive = small, poorly fitted or top-dose-only effect; inactive = no such curve, though single readings can be large or run the other way. The list shows a part of the results.
Assay: qHTS of TDP-43 Inhibitors: NCGC Sytravon Library Screen; note: nearly all actives have a fitted effect of over 55% in size; for growth rescue (activation): 0% is about no effect
Conditions: yeast TDP-43 toxicity rescue, BacTiter-Glo growth, 24 h; series mostly up to 46.1 µM; growth rescue (activation): at the top concentration
Summary of the method: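 TDP-43-expressing yeast, pregrown in raffinose, seeded at OD600 0.02 in galactose medium with compound for 24 hr at 30 deg C. Growth read by BacTiter-Glo luminescence, so rescue of toxicity appears as activation.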
Potency is the fitted concentration of half-maximal effect.

SMILES	growth rescue (activation)	Potency
O=C(CNC(=O)c1cccs1)c1ccc(Cl)cc1	inactive: 12.6%	–
O=C(COC(=O)c1cccs1)Nc1cccc(S(=O)(=O)N2CCOCC2)c1	inactive: 12.5%	–
COc1ccccc1C(=O)NCc1ccccn1	inactive: -1.18%	–
COc1ccc2cc(S(=O)(=O)N3CCCC3)ccc2c1	inactive: 35.5%	–
COC(=O)c1sc(NC(=O)CSc2nc3nc(C)cc(C)n3n2)c(C(=O)OC)c1C	inactive: 7.07%	–
CC12CNCC(C)(CN(C3(O)C(=O)Nc4ccc(Br)cc43)C1)C2=O (stereo not given)	inactive: 12.1%	–
O=C(CN1C(=O)NC(c2ccccc2)(c2ccccc2)C1=O)Nc1cccnc1Cl	inactive: 13.4%	–
OC(c1cccc(CN2CCCCC2)c1)c1ncc(-c2cccc3ccccc23)[nH]1 (stereo not given)	inactive: 21.6%	–
COc1ccc(NC(=O)c2cc3c(CO)cnc(C)c3oc2=Nc2cc(OC)cc(OC)c2)cc1	inactive: -1.03%	–
CCN(CC)C(=O)C1c2ccccc2Oc2ccccc21	inactive: 18.2%	–
CCc1ccc(Nc2nnc(SC3CCOC3=O)s2)cc1 (stereo not given)	inactive: 6.15%	–
COC(=O)/C(=C/c1ccc(OC)cc1)NC(=O)c1ccco1	inactive: 22.2%	–
O=C(Cc1ccccc1)NNC1CC(=O)N(c2ccc(Oc3ccccc3)cc2)C1=O (stereo not given)	inactive: -5.79%	–
CC(C)(C)NC(=O)NC(=O)CSc1nncs1	inactive: 4.99%	–
NS(=O)(=O)c1ccc(NC(=O)CNC(=O)c2ccc3c(c2)OCO3)cc1	inactive: 2.67%	–
O=C(Nc1ccc(S(=O)(=O)N2CCCC2)cc1)C1CCCCC1	inactive: 1.2%	–
Cc1cc(Nc2ccc(O)cc2)n2c(nc3ccccc32)c1C#N	inactive: 8.72%	–
COCc1[nH][nH]c(=O)c1C=Nc1ccccc1	inactive: 19.8%	–
CCCCN1C(=O)C(O)(c2c(C)[nH]c3ccccc23)c2cc(Br)ccc21 (stereo not given)	inactive: 0.377%	–
Cc1onc(-c2ccccc2Cl)c1C(=O)Nc1nc2ccc(S(C)(=O)=O)cc2s1	inactive: 21.9%	–
O=[N+]([O-])c1ccc(N2CCN(C(=S)c3cccc([N+](=O)[O-])c3)CC2)cc1	inactive: 32.8%	–
COc1ccc(S(=O)(=O)N2CCCCC2)cc1NC(=O)C1CC(=O)N(Cc2ccco2)C1 (stereo not given)	inactive: 6.63%	–
O=[N+]([O-])c1ccc(Nc2nc(NCCO)nc(N3CCCC3)n2)cc1	inactive: 7.72%	–
COc1ccc(NC(=O)c2cc3c(=O)n(C)c4ccccc4c3n2C)cc1Cl	inactive: 1.31%	–

SMILES	growth rescue (activation)	Potency
COc1ccccc1CN(C)C(=O)CSCC(=O)Nc1ccccc1F	inactive: 30.8%	–
CCOC(=O)C1(CCCc2ccccc2)CCN(C(=O)C2=C(C)OCCO2)CC1	inactive: 10.2%	–
O=C(COC(=O)c1ccc(S(=O)(=O)NCc2ccco2)cc1)Nc1ccccc1	inactive: 28.3%	–
CC(=O)Nc1ccc(CC(=O)NCCC(c2ccccc2)c2ccccc2)cc1	inactive: 8.23%	–
CN=C1c2cc3cc(OC)ccc3n2CCN1Cc1ccccc1	inactive: -9.99%	–
CC(C)NC(=O)CC(=O)N/N=C/c1cccs1	inactive: -3.2%	–
NC(=O)C1CC(=O)N(c2ccc(OCC(=O)N3CCCC3)cc2)C1 (stereo not given)	inactive: 0.937%	–
O=C(c1ccco1)N1CCCC(c2nc3c(nnn3Cc3cccc(Cl)c3)c(=O)[nH]2)C1 (stereo not given)	inactive: 8.5%	–
Cc1cccc(C(=O)Nc2ccccc2SCC(=O)Nc2ccc(C)c(Cl)c2)c1	inactive: 7.42%	–
CCn1c(SCC(=O)Nc2nccc(C)n2)nc2ccccc21	inactive: -2.78%	–
O=C(C1CC1)N1N=C(c2ccncc2)CC1(O)C(F)(F)F (stereo not given)	inactive: -6.42%	–
Cc1nc(SCC(=O)Nc2cccc(S(=O)(=O)N3CCOCC3)c2)nc(C)c1C	inactive: -13.2%	–
Cc1ccc2c(c1)N(CCC(=O)NCCCN1CCCC1)C(=O)C(C)O2 (stereo not given)	inactive: 6.56%	–
CC(C)(O)C#Cc1ccc(C(=O)N2CCC(CCC(=O)NC3CC3)CC2)cc1	inactive: 22.1%	–
Cc1ccc(CN2C(=O)COc3cc(NS(C)(=O)=O)ccc32)cc1	inactive: -0.975%	–
CN(Cc1ccccc1)c1oc(-c2ccco2)nc1C#N	–	active: 14.1 µM
CCOc1ccc(C(=O)C(C)=O)c(OCC)c1	inactive: 3.43%	–
CCCC(=O)N1CCC1(C)C(=O)Nc1ccc(C)c(C)c1 (stereo not given)	inactive: 1.07%	–
CCN1CCN(Cc2nc3ccc([N+](=O)[O-])cc3c(=O)n2-c2ccc(OC)cc2OC)CC1	inactive: 8.94%	–
O=C(COC(=O)c1ccc(Br)c(S(=O)(=O)N2CCOCC2)c1)NCCc1ccccc1	inactive: -2.58%	–
Cc1cc(C(=O)COc2ccccc2[N+](=O)[O-])c(C)n1C1CC1	inactive: 14.4%	–
COc1cc(NC(=O)c2ccccc2Cl)c(OC)cc1NC(=O)CN1CCCCC1	inactive: 16%	–
O=C(COC(=O)Cc1ccccc1)NCc1ccc2c(c1)OCO2	inactive: 16.9%	–
CCOC(=O)c1nc2ccccc2s1	inactive: 4.78%	–

SMILES	growth rescue (activation)	Potency
CC(NCc1ccc([N+](=O)[O-])cc1)C1COc2ccccc2O1 (stereo not given)	inactive: -8.78%	–
CC/C(=C/c1sc2ccc(C)cc2[n+]1CCO)SC	inactive: 2.36%	–
Cc1ccc(C)n1-c1nnc(N2CCCC(C(=O)NCc3ccc(Cl)cc3)C2)s1 (stereo not given)	inactive: 8.02%	–
O=C(NCc1cn2ccsc2n1)Nc1cccc(Cl)c1	inactive: -23%	–
CN(C)C(=O)c1cc(-c2ccccc2)no1	inactive: 18.3%	–
N#Cc1ccccc1OCCCNC1CCCC1	inactive: -8.5%	–
O=C(CSc1nnc(Nc2ccccc2)s1)NCc1cccs1	inactive: 3.4%	–
Cc1ccc(C(=O)C[n+]2ccccc2C)cc1[N+](=O)[O-]	inactive: 4.88%	–
C/C(CC(=O)N1CCN(C=O)CC1)=N\NC(=O)c1ccc(Br)cc1	inactive: -9.66%	–
CC1(Oc2cccc(F)c2)CCN(Cc2ccc(-c3ccccn3)cc2)C1 (stereo not given)	inactive: -4.49%	–
CC1=CC(C)(C)Nc2ccc(OC(=O)CCN3C(=O)c4ccccc4C3=O)cc21	inactive: 20.1%	–
CC(=O)N1CCN(C(=O)CCc2nnc(CCCCc3ccccc3)o2)CC1	inactive: 5.98%	–
O=C(Nc1cccs1)Nc1cc(C(F)(F)F)ccc1Cl	inactive: 24.4%	–
CCn1nc(NC(=O)CC(C)C)c2cc3cccc(C)c3nc21	inactive: -4.54%	–
Cc1cc(C)cc(NC(=S)N2CCC(NC(=O)c3ccco3)CC2)c1	inactive: -6.34%	–
COC(=O)c1cccc(NC(=O)/C=C/c2ccc3c(c2)OCO3)c1	inactive: 27.5%	–
CCOc1ccc(CCNC(=O)CCc2c(C)nc3c4c(C)cc(C)nc4nn3c2C)cc1	inactive: -9.56%	–
CCOC(=O)C1CCN(CCC(=O)Nc2cc(C)ccc2C)CC1	inactive: 2.89%	–
CC1CN(S(=O)(=O)c2cccc(C(=O)N3CCC(C(N)=O)CC3)c2)CC(C)O1 (stereo not given)	inactive: 13.4%	–
COc1ccc(-c2[nH]ncc2CN2CCC(OCc3cccnc3)CC2)c(F)c1	inactive: -15.1%	–
Cc1ccc(S(=O)(=O)N(C)/N=C2/C(=O)N(CC(=O)O)c3ccccc32)cc1	inactive: 8.96%	–
C/C(=N/Nc1ccc(C(=O)O)cc1)c1ccc(O)c(O)c1O	inactive: 14.5%	–

Source: PubChem BioAssay AID1347073 (National Center for Advancing Translational Sciences (NCATS), 2019)
